Source: PubChem BioAssay AID1347417 (National Center for Advancing Translational Sciences (NCATS), 2020)
Hit rate of the full screen: of about 120,000 compounds, about 5,300 (4.4%) were called active. The inconclusive results got no clear call from the source; some entries with a clear call stand among them for comparison. Calls follow the shape of the dose curve; as a rule, active = well fitted inhibition curve with a large enough effect; inconclusive = small, poorly fitted or top-dose-only effect; inactive = no such curve, though single readings can be large or run the other way. Potencies beside an inconclusive call are fits to weak or partial responses and may not hold up.

Test: qHTS Primary assay for Inhibitors of Plasmodium falciparum Dd2 growth in vitro; also: nearly all actives have a fitted effect of over 65% in size;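 as to activity, negative = inhibition: plate controls were DMSO vehicle for no effect and reference drug for full effect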
Details: P. falciparum Dd2 growth, SYBR Green, 72 h; activity, negative = inhibition: at 28.9 µM (top of the series) unless noted; series mostly up to 28.9 µM
How it was run: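 Infected erythrocytes (Dd2, 0.3% parasitemia, 2.5% hematocrit final) are added to compound in RPMI-1640/Albumax II medium, grown 72 h at 37C in low oxygen, then lysed with saponin/Triton-X containing SYBR Green and read by fluorescence.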
Potency is read from the fitted curve at half-maximal effect; tags tell the direction and shape of the fitted curve.

SMILES | Potency | activity, negative = inhibition | outcome
CCC(C)n1c(=N)c(C(=O)NC2CCCCC2)cc2c(=O)n3cc(C)ccc3nc21 (stereo not given) | inconclusive: 11.2 µM [inhibitor, single point] | – | –
COC(=O)[C@@H]1C[C@H](NS(=O)(=O)c2ccc3c(c2)NC(=O)CO3)CN1C | – | inactive: -3.45% | –
NC(=O)[C@H](CC1CCCCC1)NC(=O)[C@@H]1CN(S(=O)(=O)c2ccccc2)CCN1S(=O)(=O)c1ccccc1 | inconclusive: 7.08 µM [inhibitor, partial curve, poor fit] | – | –
Cc1ccc(-n2c(=O)c3cccnc3n2CC(=O)Nc2ccccc2C(F)(F)F)cc1C | active: 8.91 µM | – | –
CCC(=O)N1CCc2c(C(=O)NCc3ccc(OC)cc3)cccc21 | inconclusive: 10 µM [inhibitor, single point] | – | –
COc1ccc(-c2cn3c(n2)sc2cc(C(=O)NC4CCCCC4)ccc23)cc1 | – | inactive: 17.4% | –
Cc1ccnc(NC(c2cc(C)ccc2O)c2ccc3cccnc3c2O)c1 (stereo not given) | inconclusive: 11.2 µM [inhibitor, single point] | – | –
OC1(CNCc2nc(-c3ccncc3)n[nH]2)CNCCOC1 (stereo not given) | – | inactive: 4.76% | –
Cc1ccsc1CN1CCc2nc(N(C)Cc3cccnc3)[nH]c(=O)c2CC1 | – | – | inactive [at 5.79 µM]
O=C(C1CCCNC1)N1CCCn2cc(-c3ccccc3F)nc21 (stereo not given) | inconclusive: 6.31 µM [inhibitor, partial curve, poor fit] | – | –
O=c1cc(N2CCN(c3ccc(F)cc3)CC2)[nH]c(=O)n1-c1cccc(Br)c1 | – | inactive: -3.39% | –
O=C(C1CN(c2ccccc2)C(=O)N1)N1CCN(Cc2ccccc2)CC1 (stereo not given) | – | inactive: -6.73% | –
COCC(=O)N1CCC(Oc2ccc(C(=O)N3CCOCC3)cn2)CC1 | – | – | inactive
CC[C@H](C(=O)N1CCC2(CC1)Nc1ccccc1NC2=O)c1ccccc1 | – | inactive: -3.5% | –
Cn1ccnc1C(=O)N1CC(F)(F)C[C@H]1c1nc(C2CC2)no1 | – | inactive: 21.8% | –
CC(C)(Oc1nn(Cc2cccc(Cl)c2)c2ccccc12)C(=O)NCCc1cnc[nH]1 | inconclusive: 1.41 µM [inhibitor, partial curve, poor fit] | – | –
Cc1cccc(N2CCN(C(=O)c3ccc4c(c3)CCN4S(=O)(=O)c3ccccc3)CC2)c1C | inconclusive: 11.2 µM [inhibitor, single point] | – | –
CC(C)c1nnsc1CNCc1ccccc1OCCCCN1CCOCC1 | inconclusive: 3.55 µM [inhibitor, full curve, poor fit] | – | –
C[C@H]1[C@@H]2[C@@H](O)[C@H]([C@H](C)C(=O)N3CCCC3)CC[C@@]2(C)CC[C@@H]1NC(=O)c1cncnc1 | inconclusive: 35.5 µM [inhibitor, partial curve, poor fit] | – | –
CCCCCNc1ncnc2c1CN(c1ccc(OC)cc1)C(=O)CN2C | – | inactive: 13.5% | –
CCOc1ccccc1NC(=O)NC(CC)c1c(-n2cccc2)sc2c1CCN(C)C2 (stereo not given) | inconclusive: 17.8 µM [inhibitor, single point] | – | –
Cc1ccc(CCNC(=O)c2nnn3c2COC(c2ccc(F)cc2)C3)cc1 (stereo not given) | inconclusive: 5.01 µM [inhibitor, partial curve, poor fit] | – | –

SMILES | Potency | activity, negative = inhibition | outcome
C=CCNC(=O)Cc1ccc(N(Cc2cccc(F)c2)C(=O)c2ccco2)cc1 | inconclusive: 1.41 µM [inhibitor, single point] | – | –
O=C(c1n[nH]c2c1CCCC2)N1CCC2(CC1)N=C(c1ccccc1)NO2 | inconclusive: 2.82 µM [inhibitor, full curve, poor fit] | – | –
CC(C)CCN1CCC2(CC1)CC(=O)c1ccc(Cl)cc1O2 | inconclusive: 1.78 µM [inhibitor, partial curve, poor fit] | – | –
COc1ccc(OC)c(CN2CCCn3nc(C)c(-c4ccccc4OCc4ccccc4)c32)c1 | inconclusive: 1 µM [inhibitor, partial curve, poor fit] | – | –
CC(C)CCN1CCCC2(CN[S+](=O)([O-])c3ccccc3N2)C1 (stereo not given) | inconclusive: 2.51 µM [inhibitor, partial curve] | – | –
Cc1ccc(N2CCC(NC(=O)c3ccc(F)cc3Cl)C2=O)cc1C (stereo not given) | – | inactive: 10.1% | –
NCC1Cn2cccc2CN1Cc1ccccc1 (stereo not given) | inconclusive: 11.2 µM [inhibitor, single point] | – | –
Cc1cccc2[nH]c(CCNC(=O)C3CCC(=O)N(C4CCCCCC4)C3)nc12 (stereo not given) | inconclusive: 15.8 µM [inhibitor, partial curve, poor fit] | – | –
CC(=O)N1CCc2cc(S(=O)(=O)CCC(=O)N3CCC(CCOc4ccccc4)C3)ccc21 (stereo not given) | inconclusive: 1.58 µM [inhibitor, partial curve] | – | –
CCn1nccc1C(=O)N1CCC(C(=O)N2CCCCCCNC(=O)CC2)CC1 | inconclusive: 0.224 µM [inhibitor, full curve, poor fit] | – | –
CC(C)OC(=O)N1CCC(COc2ccc3c(cnn3CC[S+](C)(=O)[O-])c2)CC1 | inconclusive: 25.1 µM [inhibitor, partial curve, poor fit] | – | –
O=C(NCc1ccccc1)N1CC(Oc2ccc(-c3nc(-c4ccccc4)no3)cc2)C1 | – | inactive: -0.407% [at 5.79 µM] | –
CC(C)(C)CC(=O)NC[C@H]1OC[C@@H](NC2CCNCC2)[C@@H]1O | – | inactive: 10.4% [at 44.1 µM] | –
CCN1CCCC2(CCN(C(=O)CCc3n[nH]c(C)c3C)C2)C1=O (stereo not given) | – | inactive: -5.09% | –
Cn1nc(C(=O)Nc2cccc(C(F)(F)F)c2)c2c1-c1ccccc1S(=O)(=O)C2 | inconclusive: 1 µM [inhibitor, full curve, poor fit] | – | –
O=C1CC(c2noc(-c3cc(F)ccc3F)n2)CN1c1ccc(Cl)cc1 (stereo not given) | – | inactive: 32.2% | –
CN(C)c1cccc(C(=O)N2CCC3(CC2)N=C(c2ccc(Br)cc2)NO3)c1 | – | – | inactive
CCc1ccc(S(=O)(=O)c2nnn3c2nc(NCCC(C)C)c2cc(Cl)ccc23)cc1 | inconclusive: 11.2 µM [inhibitor, single point] | – | –
O=C(COc1ccc(F)cc1)N1CCC(c2nc(CCOCC3CC3)no2)C1 (stereo not given) | – | inactive: -9.19% | –
CC(=O)c1ccc(NC(=O)NC[C@H]2C[C@@H]3CCN2C[C@@H]3CN2CCSCC2)cc1 | inconclusive: 12.6 µM [inhibitor, partial curve, poor fit] | – | –
CN1C(=O)CC[C@]2(C(=O)NCc3cc(F)ccc3F)CCCC[C@@H]12 | – | inactive: 8.46% | –
O=C1c2cnc(-c3cc4ccccc4o3)nc2OCCN1c1ccccc1 | inconclusive: 0.282 µM [inhibitor, full curve, poor fit] | – | –

SMILES | Potency | activity, negative = inhibition | outcome
O=C(Cc1c[nH]c2ccccc12)N[C@@H]1[C@@H]2CCO[C@@H]2[C@@H]1C1CCCC1 | – | inactive: -18.5% | –
CCCc1noc(-c2cccn3c(CNC(=O)c4cc(C)ccc4C)nnc23)n1 | inconclusive: 2.82 µM [inhibitor, single point] | – | –
COc1cccc(NC(=O)CN2C(=O)C3(SCC(=O)N3c3cc(C)cc(C)c3)c3ccccc32)c1 (stereo not given) | inconclusive: 10 µM [inhibitor, single point] | – | –
Cc1ccc(CN2C(=O)N(c3ccc(C)c(Cl)c3)S(=O)(=O)c3ccccc32)cc1 | inconclusive: 15.8 µM [inhibitor, single point] | – | –
CCOc1cccc(-c2nc(C(=O)NCCc3ccccc3OC)cs2)c1 | – | – | inactive
CCOC(=O)c1ccc(NC(=O)Cn2c(-c3cnccn3)nc(C)c(CCO)c2=O)cc1 | inconclusive: 0.0708 µM [inhibitor, full curve, poor fit] | – | –
Cc1ccc(NC(=O)C2CCN(S(=O)(=O)c3c(C)noc3C)CC2)cc1C | – | inactive: -9.27% | –
COc1cc(Nc2ccc3nnc(-c4ccc(C)cn4)n3n2)cc(OC)c1OC | inconclusive: 11.2 µM [inhibitor, partial curve, poor fit] | – | –
CCn1c2c(c(=O)n3ncc(C(=O)Nc4ccc(F)c(Cl)c4)c13)CN(Cc1ccc(OC)cc1)CC2 | inconclusive: 17.8 µM [inhibitor, single point] | – | –
CC1(C(=O)NCc2cccnc2)COCc2cnc(Nc3ccccc3)nc21 (stereo not given) | – | inactive: 4.12% [at 44.1 µM] | –
O=C(NCC1Cn2cccc2C(=O)N1Cc1ccccc1)c1cccc2nccnc12 (stereo not given) | inconclusive: 10 µM [inhibitor, single point] | – | –
COc1ccccc1N1CCN(C(=O)c2cc3c(=O)n(Cc4cccnc4)ccc3nc2C)CC1 | inconclusive: 10 µM [inhibitor, partial curve] | – | –
Cn1c(N2CCN(C(=O)CC[C@H]3NC(=O)c4ccccc4NC3=O)CC2)nc2ccccc21 | inconclusive: 12.6 µM [inhibitor, partial curve, poor fit] | – | –
CC1=C(C(=O)OC(C)(C)C)C(c2ccccc2)N2C(CC(=O)NCc3ccco3)=CSC2=N1 (stereo not given) | inconclusive: 3.16 µM [inhibitor, single point] | – | –
COc1ccc(C(=O)N2CCC3(CC2)N=C(c2ccc(Br)cc2)NO3)cc1 | inconclusive: 7.94 µM [inhibitor, partial curve, poor fit] | – | –
Cc1ccc(Cl)cc1N1CCN(C(=O)c2cn(C)c3ccc(S(=O)(=O)N4CCCC4)cc3c2=O)CC1 | inconclusive: 8.91 µM [inhibitor, partial curve, poor fit] | – | –
CN(C)c1ncnc2sc3c(c12)CCN(Cc1ccccc1)C3 | inconclusive: 3.16 µM [inhibitor, single point] | – | –
CC1=C(C(=O)OC2CCCC2)C(c2cccc(Cl)c2Cl)CC(=O)N1 (stereo not given) | inconclusive: 12.6 µM [inhibitor, single point] | – | –
CCOc1ccc(-n2ccnc2SCC(=O)Nc2ccc(OC)cc2OC)cc1 | – | – | inactive
O=C(NC1CC1)[C@@H]1C[C@H](Oc2ccccc2)CN1C(=O)Cc1ccccc1 | – | inactive: -15.8% | –
CCn1cc(C(=O)N2CCC3(CC2)CN(C2CCC2)CC3CO)cn1 (stereo not given) | – | inactive: -11.5% | –
